# From PubChem BioAssay AID588689 (Southern Research Specialized Biocontainment Screening …, 2011)
# About 1,000 (0.29%) of roughly 340,000 compounds were called active. The shares of active, inactive and inconclusive entries below differ from those in the screen. No stated cut-off is given here; in the data, inconclusive means inhibition above about 29% without an active follow-up result; inactive means below that.
# Molecular target: Genome polyprotein (Dengue virus type 2 (strain 16681-PDK53)) (UniProt P29991)
# Experiment: Dengue-2 NS5 methyltransferase inhibitors, primary screen, biochemical, confirmation dose response (AID 588689)
# Details: Dengue-2 NS5 methyltransferase capping enzyme assay, at 25 µM, stronger effect = higher value
row,SMILES,inhibition
1,O=C1C=C(O)c2cccc3cccc1c23,inconclusive: 38.4%
2,Cc1ccc(S(=O)(=O)NC2=C(N3CCN(c4ccccc4F)CC3)C(=O)c3ccccc3C2=O)cc1,inconclusive: 34.9%
3,c1ccc(C(=NNc2nc3ccccc3s2)c2ccccn2)cc1,inconclusive: 83.7%
4,Oc1[nH]c2ccc(Br)cc2c1N=Nc1ccc(F)cc1,inconclusive: 171%
5,COCCNC(=O)CCn1nc(-c2ccc(C)cc2)c2ccccc2c1=O,inactive: -3.27%
6,CCOC(=O)CC1C(=O)NCCN1c1nc2ccc(C)cn2c(=O)c1/C=C1\SC(=S)N(CC(C)C)C1=O (stereo unspecified),inconclusive: 43.1%
7,CCCn1c(=N)n(CC(O)c2ccco2)c2ccccc21 (stereo unspecified),inconclusive: 57.3%
8,CNC(=O)NC(=S)NC(=O)c1ccccc1Cl,inactive: 2.96%
9,Cc1ccc(F)c(NC(=O)CCc2ccccc2)c1,inactive: -5.56%
10,COc1cc(/C=C2/SC(=S)N(Cc3ccccc3)C2=O)cc(Cl)c1O,inconclusive: 171%
11,Nc1ccc(-c2c3ccc(=O)cc-3oc3cc(O)ccc23)cc1C(=O)O,inconclusive: 172%
12,O=C(/C=C/c1cccc([N+](=O)[O-])c1)NCCN1C(=O)S/C(=C\c2ccc(F)cc2)C1=O,inactive: 5.26%
13,CCCC(c1nnnn1C(C)(C)CC)N1CCN(C(=O)c2ccco2)CC1 (stereo unspecified),inactive: 3.16%
14,CCSC1=N/C(=C\c2ccc(-c3ccccc3[N+](=O)[O-])o2)C(=O)S1,inconclusive: 82.4%
15,NC(N)=NC(N)=Nc1cccc(Cl)c1,inconclusive: 31.5%
16,C=CCNc1nnc(SCC(=O)N2CCCCC2)c2ccccc12,inconclusive: 49.7%
17,O=[N+]([O-])c1ccc(N/N=C/c2cccc(O)c2O)c(S(=O)(=O)N2CCOCC2)c1,inactive: 6.18%
18,COC(=O)c1c(=O)n(O)c2ccc(OC)cc2[n+]1[O-],inconclusive: 53.7%
19,CC(=O)c1c(C)[nH]c(C(=O)OCC(=O)N2CCc3ccccc32)c1C,inactive: -4.77%
20,Cc1cccn2c(=O)c(/C=C3\SC(=S)N(CC(C)C)C3=O)c(NCCCOC(C)C)nc12,inconclusive: 70.6%
21,CCOC(=O)c1c2ccc(OCC(=O)NN)cc2n2ccccc12,inconclusive: 34.3%
22,CCOC(=O)C1=C(CSc2nc3c(cc2C#N)CN(C)CC3)OC(N)=C(C#N)C1c1ccncc1 (stereo unspecified),inconclusive: 75.8%

row,SMILES,inhibition
1,CC(=O)Nc1sc2c(c1-c1nc3ccccc3s1)CCN(C(C)C)C2,inconclusive: 137%
2,Cc1ccc(C2C(C#N)=C(N)SC(N)=C2C#N)c(C)c1,inconclusive: 153%
3,CCOC(=O)c1cc2c(=O)n3ccccc3nc2n(CCOC)c1=NC(=O)c1c(-c2c(F)cccc2Cl)noc1C,inconclusive: 30.3%
4,Cc1cccc(-n2c(O)c(C=Nc3ccc4c(c3)OCO4)c3ccccc3c2=O)n1,inconclusive: 105%
5,Cc1nnc(NC(=O)c2sc3nc(-c4cccs4)cc(C(F)(F)F)c3c2N)s1,inconclusive: 141%
6,COc1ncnc2c1N=C1CC(C)(C)CC(N)=C1S2,inconclusive: 88.1%
7,O=[N+]([O-])c1c(Nc2ccccc2O)ccc2nonc12,inactive: 6.25%
8,Cn1c(/C=C/c2ccc([N+](=O)[O-])o2)nc2ccccc2c1=O,inconclusive: 44.4%
9,COc1ccc2c(c1)c1nc3ccccc3nc1n2CC(=O)OC(C)C,inconclusive: 112%
10,Cc1ccc(C2C(C#N)=C(N)SC(N)=C2C#N)cc1,inconclusive: 168%
11,COC(=O)C1C2CC3c4[nH]c5cc(OC)ccc5c4CCN3CC2CC(OC(=O)CC(C)=O)C1OC (stereo unspecified),inconclusive: 43.7%
12,Cc1cc(C(=O)N/N=C/c2ccc(-c3ccc([N+](=O)[O-])cc3Cl)o2)n[nH]1,inconclusive: 64.7%
13,CCOC(=O)C1C(=O)CC(C)(O)C(C(=O)OCC)C1c1cccc(OC)c1 (stereo unspecified),inactive: -3.38%
14,CCCc1cc(-n2cnc3ccccc32)n2c(nc3ccccc32)c1C#N,inconclusive: 54.8%
15,CCOc1cc(CNc2ccc(O)cc2)ccc1OCc1ccc(Cl)cc1Cl,inconclusive: 54.6%
16,Cc1ccc(-n2nnnc2CS(=O)(=O)c2ccccc2)c(C)c1,inactive: -5.86%
17,CCOC(=O)/C(=C/c1ccc(N2CCC(c3ccccc3)=N2)cc1)C(C)=O,inconclusive: 79.6%
18,CCCSc1nc(O)c(C2OC(=O)c3c2ccc(OC)c3OC)c(=O)n1-c1ccccc1 (stereo unspecified),inactive: 11.7%
19,O=C(CC1C=CCC1)Nc1ccccc1 (stereo unspecified),inconclusive: 131%
20,Cc1ccc(Sc2ccc(/C=C3/C(=O)NN(c4ccccc4)C3=O)o2)cc1,inactive: -2.65%
21,COc1ccc(C(=O)Nc2ccccc2-c2nnn(CC(=O)Nc3ccc4c(c3)OCCO4)n2)cc1,inconclusive: 152%
22,N#CC1(NC(=O)COC(=O)C2=COCCO2)CCCCC1,inconclusive: 130%

row,SMILES,inhibition
1,Cc1cc2cc(CNC(=O)Nc3ccccc3)ccc2n1C,inconclusive: 30.1%
2,N/C(=N\OC(=O)Cc1ccccc1)c1ccc(Br)cc1,inconclusive: 33.8%
3,COc1ccc(C(=O)Nc2cccc(-c3ccc4nncn4n3)c2)cc1OC,inactive: 2.3%
4,COc1cc(/C=C(\C#N)c2nc3ccccc3o2)ccc1O,inconclusive: 197%
5,Cc1cc(C(=O)OCC(=O)NCc2ccc(Cl)cc2Cl)c(C)o1,inactive: -0.73%
6,Cc1ccc(S(=O)(=O)NN2C(=O)/C(=C\c3ccc(Cl)cc3)SC2=S)cc1,inactive: -1.66%
7,COc1ccccc1C(=O)Oc1ccc2c(c1)O/C(=C\c1ccncc1)C2=O,inconclusive: 86.2%
8,COc1ccccc1C(C)NCC(=O)NCc1ccc(C)cc1 (stereo unspecified),inactive: -3.92%
9,CCCN1C(=O)/C(=C/c2ccc(N3CCCC3)c(C)c2)NC1=S,inconclusive: 165%
10,Cc1cccc(NC(=O)CSc2nnc(-c3ccco3)o2)c1C,inactive: 3.22%
11,O=C(O)C(=O)/C(=C\c1cccc2ccccc12)c1ccc2ccccc2n1,inconclusive: 94.6%
12,CC1=NNC(=O)C1C(c1ccccc1)C(C#N)C#N (stereo unspecified),inactive: -4.84%
13,O=C(/C=C/c1ccc(OCCCF)cc1)Nc1ccnc(-c2cccnc2)n1,inconclusive: 61.5%
14,COc1cc(OC)cc(N(C(=O)C2COc3ccccc3O2)C(C(=O)NC2CCCCC2)c2ccc(O)cc2)c1 (stereo unspecified),inactive: -5.19%
15,Cc1ccc(-c2nc3sc(C#N)c(N)n3c(=O)c2C#N)cc1,inconclusive: 64.2%
16,COc1ccc(-c2c(-c3cc(OC)cc(OC)c3)n(C)c3ccc(-c4ccc(OC)cc4F)cc23)cc1,inactive: -1.04%
17,CCOC(=O)c1ccc(CC(=O)c2ccc(O)cc2O)o1,inactive: -4.07%
18,CC(C)c1[nH]c(=O)c(C#N)c2c1CSC(C)(C)C2,inactive: -6.61%
19,CCCCC1=CC2=C(c3ccco3)C(=O)C(C)(OC(=O)c3ccc(OC)cc3)C(=O)C2=CN1CC(C)C (stereo unspecified),inconclusive: 34.1%
20,Cc1cc(C)cc(N2C(=O)C=CC2=O)c1,inactive: -24.7%
21,CCN1C(=O)/C(=C/c2cn(-c3ccccc3)nc2-c2cccnc2)SC1=S,inconclusive: 49.7%
22,CCOC(=O)c1c(-c2ccccc2)csc1NC(=O)/C(C#N)=C/c1ccc(O)c(OC)c1,inconclusive: 152%

row,SMILES,inhibition
1,CCCCCn1c(=N)c(S(=O)(=O)c2ccc(Cl)cc2)cc2c(=O)n3cccc(C)c3nc21,inconclusive: 31.6%
2,N#Cc1cccc(NC(=O)CSc2ccc3c4c(cccc24)C(=O)c2ccccc2-3)c1,inconclusive: 165%
3,N#CC1=C(N)SC(N)=C(C#N)C1Cc1ccccc1,inconclusive: 91.3%
4,CCOC(=O)c1c(C)[nH]c(C(=O)OCC(=O)N(CC(C)C)C2CCS(=O)(=O)C2)c1C (stereo unspecified),inactive: 4.1%
5,COc1ccc(/C=C2\C(=O)ON=C2c2ccccc2)cc1,inconclusive: 40.9%
6,COC(=O)CCC(=O)COc1ccccc1C#N,inactive: -1.61%
7,NC(=O)c1cc2ccc(O)cc2oc1=NCc1ccccc1,inconclusive: 106%
8,Cc1ccc(/C=C2/C(=O)ON=C2c2ccccc2)o1,inactive: 19.3%
9,CCN1CC=C2C(C#N)=C(N)C(C#N)(C#N)[C@H](c3cccc(OC)c3OC)[C@H]2C1,inconclusive: 84.9%
10,N#Cc1cc([N+](=O)[O-])ccc1NC(=O)COC(=O)C1CC2CCCC(C1)C2=O (stereo unspecified),inactive: -2.16%
11,Cc1cccc2sc(NC(=O)C3CCCN(S(=O)(=O)c4cccc5nonc45)C3)nc12 (stereo unspecified),inconclusive: 30.5%
12,O=C(N/C(=C\c1cccnc1)C(=O)N1CCC(O)CC1)c1ccccc1,inactive: -1.67%
13,O=C(NC1CCCC1)c1cccc2c1C(=O)c1ccc(N3CCCCC3)cc1S2(=O)=O,inconclusive: 46.1%
14,Cc1cc(O)c2c(c1O)C(=O)[C@]13C(=C2O)C(=O)[C@@H]2[C@@H](O)[C@H]1[C@@H]1[C@H](O)[C@H]3C(=O)C3=C(O)c4c(O)cc(C)c(O)c4C(=O)[C@]312,inconclusive: 37.6%
15,Cc1c(N=C2N=C(NC(=O)c3ccc(F)cc3)c3ccccc32)c(=O)n(-c2ccccc2)n1C,inconclusive: 153%
16,O=C(O)C(Cc1ccc(O)cc1)N1C(=O)c2c(Cl)c(Cl)c(Cl)c(Cl)c2C1=O (stereo unspecified),inactive: 16.9%
17,CCOC(=O)C1=C(Cc2ccc(OC)cc2)C(=O)c2ccccc2C1=O,inconclusive: 120%
18,COc1ccc(NC(=O)/C=C/c2cccc(Br)c2)cn1,inconclusive: 35.2%
19,COc1ccc(/C=C2\SC(=S)N(CCCC(=O)Nc3cc(C)on3)C2=O)cc1OC,inconclusive: 101%
20,Nc1c(Cl)ncnc1N/N=C/c1ccc2ccccc2n1,inconclusive: 45.1%
